Experimental data: PMC13456277, “Direct interaction between RSV polymerase L and active Rab11a mediates viral ribonucleoprotein transport to assembly sites” (PLOS Pathogens, 2026)
Results are given in words; binding and its absence hold for the method and conditions named. For part of these data: In cells and extracts the contact can be indirect. Some results given as binding are weak or reduced against the parent protein; the word gives no strength.

By UniProt entry, the sequences of proteins in these tests, tags left out. Where a name states a change or a piece, a line headed by the entry shows the natural chain unless it says otherwise. Chains listed by the source or under a name are the forms on record and can include a tag or linker. Residues count along the entry.
UniProt P28887: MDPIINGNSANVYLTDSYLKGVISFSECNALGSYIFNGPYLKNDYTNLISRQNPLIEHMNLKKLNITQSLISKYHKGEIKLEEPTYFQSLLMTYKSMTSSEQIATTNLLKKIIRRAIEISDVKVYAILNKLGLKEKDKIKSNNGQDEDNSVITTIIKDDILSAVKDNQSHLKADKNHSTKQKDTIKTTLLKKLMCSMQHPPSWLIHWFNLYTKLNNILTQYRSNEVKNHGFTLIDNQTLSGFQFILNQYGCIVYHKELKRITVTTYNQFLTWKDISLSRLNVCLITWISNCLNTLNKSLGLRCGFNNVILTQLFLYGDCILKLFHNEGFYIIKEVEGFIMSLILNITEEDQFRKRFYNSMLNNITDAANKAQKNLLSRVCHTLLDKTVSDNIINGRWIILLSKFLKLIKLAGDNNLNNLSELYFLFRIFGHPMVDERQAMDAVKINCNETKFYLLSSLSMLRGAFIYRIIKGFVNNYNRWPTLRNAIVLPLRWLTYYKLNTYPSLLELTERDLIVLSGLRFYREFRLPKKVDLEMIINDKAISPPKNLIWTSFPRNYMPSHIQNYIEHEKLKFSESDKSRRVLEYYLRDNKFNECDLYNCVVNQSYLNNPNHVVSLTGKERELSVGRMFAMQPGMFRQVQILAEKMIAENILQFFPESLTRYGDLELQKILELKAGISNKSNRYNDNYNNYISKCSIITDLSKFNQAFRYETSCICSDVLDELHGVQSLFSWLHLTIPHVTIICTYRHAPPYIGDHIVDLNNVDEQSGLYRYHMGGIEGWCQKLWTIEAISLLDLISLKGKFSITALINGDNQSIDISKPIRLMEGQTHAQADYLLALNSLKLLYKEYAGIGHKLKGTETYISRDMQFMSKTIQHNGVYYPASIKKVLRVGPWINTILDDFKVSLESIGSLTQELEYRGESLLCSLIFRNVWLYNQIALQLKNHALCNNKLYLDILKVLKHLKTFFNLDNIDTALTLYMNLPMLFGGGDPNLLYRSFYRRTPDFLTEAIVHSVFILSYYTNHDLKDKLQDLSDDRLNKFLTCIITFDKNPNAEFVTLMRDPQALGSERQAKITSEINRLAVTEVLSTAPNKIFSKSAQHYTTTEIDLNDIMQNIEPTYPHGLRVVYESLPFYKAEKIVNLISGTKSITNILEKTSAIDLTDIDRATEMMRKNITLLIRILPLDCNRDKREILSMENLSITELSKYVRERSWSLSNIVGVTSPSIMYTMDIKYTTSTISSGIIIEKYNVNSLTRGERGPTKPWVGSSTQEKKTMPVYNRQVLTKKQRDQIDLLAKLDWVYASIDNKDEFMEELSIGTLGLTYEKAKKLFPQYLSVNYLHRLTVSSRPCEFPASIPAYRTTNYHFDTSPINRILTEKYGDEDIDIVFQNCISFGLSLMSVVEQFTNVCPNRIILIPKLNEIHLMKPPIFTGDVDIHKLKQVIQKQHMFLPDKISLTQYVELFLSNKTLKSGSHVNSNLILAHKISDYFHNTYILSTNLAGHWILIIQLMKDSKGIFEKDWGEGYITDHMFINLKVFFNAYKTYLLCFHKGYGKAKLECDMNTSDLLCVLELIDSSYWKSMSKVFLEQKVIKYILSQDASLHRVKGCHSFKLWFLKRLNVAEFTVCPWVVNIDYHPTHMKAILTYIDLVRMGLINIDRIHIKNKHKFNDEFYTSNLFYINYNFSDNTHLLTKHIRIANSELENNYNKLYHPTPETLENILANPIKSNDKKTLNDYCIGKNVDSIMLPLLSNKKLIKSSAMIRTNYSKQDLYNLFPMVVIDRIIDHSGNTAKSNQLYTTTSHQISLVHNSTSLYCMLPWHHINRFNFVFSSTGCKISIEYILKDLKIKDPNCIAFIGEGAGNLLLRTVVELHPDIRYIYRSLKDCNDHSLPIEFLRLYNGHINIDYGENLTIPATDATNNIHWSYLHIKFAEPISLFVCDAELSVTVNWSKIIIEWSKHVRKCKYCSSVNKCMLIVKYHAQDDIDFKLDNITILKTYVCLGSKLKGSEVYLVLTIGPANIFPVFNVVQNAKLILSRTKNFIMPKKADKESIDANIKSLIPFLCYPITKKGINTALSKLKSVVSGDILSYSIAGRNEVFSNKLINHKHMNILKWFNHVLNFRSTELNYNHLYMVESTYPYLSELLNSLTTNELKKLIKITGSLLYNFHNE
L_(1-1755)-GFP: residues 1-1755 of P28887
GFP-L_(2040-2165): residues 2040-2165 of P28887
UniProt P62491: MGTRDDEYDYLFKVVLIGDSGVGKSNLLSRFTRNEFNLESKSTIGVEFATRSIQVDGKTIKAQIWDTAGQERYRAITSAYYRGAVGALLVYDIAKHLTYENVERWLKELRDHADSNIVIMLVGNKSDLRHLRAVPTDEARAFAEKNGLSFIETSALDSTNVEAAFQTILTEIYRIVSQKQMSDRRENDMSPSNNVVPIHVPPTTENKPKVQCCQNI
HA-Rab11aCAAAA (P62491, form named): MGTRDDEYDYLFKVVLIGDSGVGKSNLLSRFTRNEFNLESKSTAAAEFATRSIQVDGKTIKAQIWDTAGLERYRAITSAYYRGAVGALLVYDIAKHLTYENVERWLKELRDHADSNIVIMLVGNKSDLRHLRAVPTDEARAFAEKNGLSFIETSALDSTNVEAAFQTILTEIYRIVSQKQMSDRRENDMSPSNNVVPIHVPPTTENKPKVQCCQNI

Tests used:
[1] = molecular target: RSV L-Twin-Strep-tag + P-his (human respiratory syncytial virus) (UniProt P28887); experiment: BLI; as a5 (single concentration 2 µM) but with 1 mM GTP (GST-Rab11a WT); both purified
[2] = molecular target: RSV L-Twin-Strep-tag + P-his (human respiratory syncytial virus) (UniProt P28887); experiment: BLI; Octet RED 384, 25°C; L-Twin-Strep-tag + P-his loaded on Ni-NTA sensors via the His tag of P; single concentration 2 µM GST-Rab11a variant, 600 s association, 300 s dissociation; 50 mM Tris-HCl pH 8.0, 300 mM NaCl, 0.02% Tween-20, BSA; no GTP for Rab11a WT; GTP not specified for CA and DN; both purified
[3] = molecular target: RSV L-Twin-Strep-tag + P-his (human respiratory syncytial virus) (UniProt P28887); experiment: BLI; Octet RED 384, 25°C; L-Twin-Strep-tag + P-his loaded on Ni-NTA sensors; two-fold dilutions of GST-Rab11a (with 1 mM GTP) or GST-Rab11a CA from 50 nM to 3.2 µM; association 60 min to steady state, dissociation 5 min; apparent KD from steady-state responses, one-site model, double referenced; both purified
[4] = molecular target: GFP-L_(2040-2165) (human respiratory syncytial virus) (UniProt P28887); experiment: co-IP; HEK-293T co-transfected for 24 h; cells treated with 300 µM DSP cross-linker for 30 min before lysis (25 mM Tris-HCl pH 7.5, 200 mM NaCl, 1 mM EDTA, 0.5% NP40); GFP-Trap beads overnight at 4°C precipitate the GFP-tagged viral protein; HA-Rab11a detected by anti-HA Western blot
[5] = molecular target: L-GFP full length (1-2165) co-expressed with P (L-P complex) (human respiratory syncytial virus) (UniProt P28887); experiment: as above
[6] = molecular target: L_(1-1755)-GFP (human respiratory syncytial virus) (UniProt P28887); experiment: as above
[7] = molecular target: GST-Rab11a(S25N) DN (human) (UniProt P62491); experiment: pull-down; purified GST or GST-Rab11a variants on Glutathione Sepharose 4B beads incubated 3 h at 4°C with lysates of HEK-293T cells expressing GFP-tagged L constructs (with or without P); 50 mM Tris-HCl pH 7.5, 300 mM NaCl, 0.6% NP-40; no GTP in this experiment; anti-GFP Western blot; only the target …
[8] = molecular target: GST-Rab11a(Q70L) CA (human) (UniProt P62491); experiment: as above

GST-Rab11a WT (from UniProt P62491 1-216)
binding [1]: binds
binding [2]: no binding (condition: in the absence of GTP (2 µM))

GST-Rab11a(Q70L) CA (from UniProt P62491 1-216)
binding [3]: binds
binding [2]: binds

GST-Rab11a(S25N) DN (from UniProt P62491 1-216)
binding [2]: no binding (tested: 2 µM)

HA-Rab11a(Q70L) CA (from UniProt P62491 1-216)
binding [4]: no binding
binding [5]: binds
binding [6]: no binding

HA-Rab11a(S25N) DN (from UniProt P62491 1-216)
binding [5]: no binding
binding [6]: no binding

HA-Rab11aCAAAA (from UniProt P62491 1-216)
binding [5]: no binding

L-GFP full length (1-2165) co-expressed with P (L-P complex) (from UniProt P28887 1-2165; P03421 1-241)
binding [7]: no binding
binding [8]: binds

full-length L-GFP expressed without P (from UniProt P28887 1-2165)
binding [7]: no binding
binding [8]: binds
